The text below walks through data of the supplement of paper PMC12217912.

The other results are listed elsewhere or left out. The full chains were built here from the parent and the listed change. Inactive controls read about 0.05.

Sequences and labels used below:
B1: TEV protease; numbered along this chain (parent)
chain: MGESLFKGPRDYNPISSSICHLTNESDGHTTSLYGIGFGPFIITNKHLFRRNNGTLVVQSLHGVFKVKDTTTLQQHLVDGRDMIIIRMPKDFPPFPQKLKFREPQREERICLVTTNFQTKSMSSMVSDTSCTFPSGDGIFWKHWIQTKDGQCGSPLVSTRDGFIVGIHSASNFTNTNNYFTSVPKNFMELLTNQEAQQWVSGWRLNADSVLWGGHKVFMVKPEEPFQPVKEATQL

In this assay the parent is B1. Kind of assay: raw area under fraction-flipped curve 0-4 h after induction (AUC4h, not background-subtracted), DNA-recorder readout of cleavage of the substrate (dimensionless); higher = more cleavage of the substrate by the protease variant. The settings on record: temperature: 34 °C; time window: 0-4 h after rhamnose induction. Here is the method:
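In vivo DNA recorder in E. coli TOP10(DE3) ΔrhaA at 34 °C. Each TEVp single-site mutant (parent TEVp 0) is paired with a single-site variant of the 7-mer TEVs (canonical ENLYFQ|S). The substrate sits between flexible linkers in a Bxb1-sfGFP-TEVs-SsrA fusion, so cleavage stabilises Bxb1 and speeds flipping of a recombination array, read by NGS. The value is the raw area under the fraction-flipped curve over 0-4 h after rhamnose induction (AUC4h), with ≥20 reads per time point. It is not background-subtracted; inactive controls average about 0.047.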
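Further: Bxb1 expression induced with 0.2% (w/v) L-rhamnose at OD600 near 0.5, cultures sampled hourly, flipped fraction per protease–substrate barcode pair counted by paired-end Illumina sequencing.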

On to MGESLFKGPRDYNPISSSICHLTNESDGHTTSLYGIGFGPFIITNKHLFRRNNGTLVVQSLHGVFKVKDTTTLQQHLVDGRDMIIIRMPKDFPPFPQKLKFREPNREERICLVTTNFQTKSMSSMVSDTSCTFPSGDGIFWKHWIQTKDGQCGSPLVSTRDGFIVGIHSASNFTNTNNYFTSVPKNFMELLTNQEAQQWVSGWRLNADSVLWGGHKVFMVKPEEPFQPVKEATQL [Q105N], for which the “area with substrate ENLYAQS” value turned out to be 0.0604, the “area with substrate ENLYCQS” value stood at 0.0816, the “area with substrate ENLYDQS” value is 0.0592 and the “area with substrate ENLYEQS” value amounted to 0.0746. For the same variant, the “area with substrate ENLYGQS” value was determined as 0.0669, the “area with substrate ENLYHQS” value amounted to 0.0688, the “area with substrate ENLYIQS” value stood at 0.147 and the “area with substrate ENLYKQS” value is 0.0636. Also, the “area with substrate ENLYMQS” value stood at 0.0824, the “area with substrate ENLYNQS” value is 0.0671, the “area with substrate ENLYPQS” value came out at 0.0751 and the “area with substrate ENLYQQS” value was found to be 0.0652. Also, the “area with substrate ENLYRQS” value was determined as 0.0507, the “area with substrate ENLYSQS” value amounted to 0.0763, the “area with substrate ENLYTQS” value was 0.0699 and the “area with substrate ENLYVQS” value worked out at 0.127. Besides, the “area with substrate ENLYWQS” value is 0.0872 and the “area with substrate ENLYYQS” value stood at 0.0657.

On to MGESLFKGPRDYNPISSSICHLTNESDGHTTSLYGIGFGPFIITNKHLFRRNNGTLVVQSLHGVFKVKDTTTLQQHLVDGRDMIIIRMPKDFPPFPQKLKFREPQREERICLVTTNFQTKEMSSMVSDTSCTFPSGDGIFWKHWIQTKDGQCGSPLVSTRDGFIVGIHSASNFTNTNNYFTSVPKNFMELLTNQEAQQWVSGWRLNADSVLWGGHKVFMVKPEEPFQPVKEATQL [S121E], for which the “area with substrate ENLYAQS” value turned out to be 0.0652, the “area with substrate ENLYDQS” value is 0.0597, the “area with substrate ENLYEQS” value stood at 0.063 and the “area with substrate ENLYGQS” value is 0.0677. Further, the “area with substrate ENLYIQS” value is 0.088, the “area with substrate ENLYMQS” value worked out at 0.0891, the “area with substrate ENLYNQS” value was found to be 0.0748 and the “area with substrate ENLYRQS” value is 0.0577. For the same variant, the “area with substrate ENLYSQS” value is 0.122, the “area with substrate ENLYWQS” value is 0.0637 and the “area with substrate ENLYYQS” value was found to be 0.0727.

As to MGESLFKGPRDYNPISSSICHLTNESDGHTTSLYGIGFGPFIITNKHLFRRNNGTLVVQSLHGVFKVKDTTTLQQHLVDGRDMIIIRMPKDFPPFPQKLKFREPQREERICLVTTNFNTKSMSSMVSDTSCTFPSGDGIFWKHWIQTKDGQCGSPLVSTRDGFIVGIHSASNFTNTNNYFTSVPKNFMELLTNQEAQQWVSGWRLNADSVLWGGHKVFMVKPEEPFQPVKEATQL [Q118N], the “area with substrate ENLYAQS” value turned out to be 0.0636, the “area with substrate ENLYDQS” value was 0.068, the “area with substrate ENLYEQS” value amounted to 0.0678 and the “area with substrate ENLYHQS” value stood at 0.0694. For the same variant, the “area with substrate ENLYKQS” value amounted to 0.0678, the “area with substrate ENLYLQS” value stood at 0.0733, the “area with substrate ENLYMQS” value was determined as 0.0931 and the “area with substrate ENLYNQS” value is 0.0853. The “area with substrate ENLYPQS” value was determined as 0.116, the “area with substrate ENLYRQS” value came out at 0.0666, the “area with substrate ENLYSQS” value worked out at 0.0719 and the “area with substrate ENLYVQS” value worked out at 0.101. Further, the “area with substrate ENLYWQS” value is 0.0818 and the “area with substrate ENLYYQS” value turned out to be 0.0633.

MGESLFKGPRDYNPISSSICHLTNESDGHTTSLYGIGFGPFIITNKHLFRRNNGTLVVQSLHGVFKVKDTTTLQQHLVDGRDMIIIRMPKDFPPFPQKLKFREPQRENRICLVTTNFQTKSMSSMVSDTSCTFPSGDGIFWKHWIQTKDGQCGSPLVSTRDGFIVGIHSASNFTNTNNYFTSVPKNFMELLTNQEAQQWVSGWRLNADSVLWGGHKVFMVKPEEPFQPVKEATQL [E108N]: the “area with substrate ENLYAQS” value was determined as 0.06, the “area with substrate ENLYCQS” value amounted to 0.0652, the “area with substrate ENLYDQS” value came out at 0.0588 and the “area with substrate ENLYEQS” value was 0.0506. Besides, the “area with substrate ENLYGQS” value is 0.0642, the “area with substrate ENLYHQS” value came out at 0.0475, the “area with substrate ENLYIQS” value amounted to 0.103 and the “area with substrate ENLYKQS” value was determined as 0.0509. Besides, the “area with substrate ENLYMQS” value was 0.0694, the “area with substrate ENLYNQS” value was 0.0538, the “area with substrate ENLYPQS” value came out at 0.0689 and the “area with substrate ENLYQQS” value was 0.0635. The “area with substrate ENLYRQS” value is 0.0549, the “area with substrate ENLYSQS” value is 0.0685, the “area with substrate ENLYTQS” value was 0.0691 and the “area with substrate ENLYVQS” value was determined as 0.0836. Moreover, the “area with substrate ENLYWQS” value was determined as 0.0468 and the “area with substrate ENLYYQS” value was found to be 0.059.

Turning to MGESLFKGPRDYNPISSSICHLTNESDGHTTSLYGIGFGPFIITNKHLFRRNNGTLVVQSLHGVFKVKDTTTLQQHLVDGRDMIIIRMPKDFPPFPQKLKFREPQREERICLVTTNFQTKSMSSLVSDTSCTFPSGDGIFWKHWIQTKDGQCGSPLVSTRDGFIVGIHSASNFTNTNNYFTSVPKNFMELLTNQEAQQWVSGWRLNADSVLWGGHKVFMVKPEEPFQPVKEATQL [M125L], the “area with substrate ENLYAQS” value was 0.0703, the “area with substrate ENLYDQS” value is 0.0541, the “area with substrate ENLYEQS” value turned out to be 0.0606 and the “area with substrate ENLYGQS” value was found to be 0.0456. For the same variant, the “area with substrate ENLYHQS” value stood at 0.0487, the “area with substrate ENLYKQS” value was 0.0626, the “area with substrate ENLYMQS” value was determined as 0.101 and the “area with substrate ENLYNQS” value stood at 0.0595. Also, the “area with substrate ENLYPQS” value is 0.0722, the “area with substrate ENLYRQS” value stood at 0.0684, the “area with substrate ENLYSQS” value was found to be 0.0695 and the “area with substrate ENLYTQS” value came to 0.0752. In addition, the “area with substrate ENLYVQS” value came to 0.109, the “area with substrate ENLYWQS” value was determined as 0.0884 and the “area with substrate ENLYYQS” value amounted to 0.0772.

For MGESLFKGPRDYNPISSSICHLTNESDGHTTSLYGIGFGPFIITNKHLFRRNNGTLVVQSLHGVFKVKDTTTLQQHLVDGRDMIIIRMPKDFPPFPQKLKFREPQREERICLVTTNFQTKSMTSMVSDTSCTFPSGDGIFWKHWIQTKDGQCGSPLVSTRDGFIVGIHSASNFTNTNNYFTSVPKNFMELLTNQEAQQWVSGWRLNADSVLWGGHKVFMVKPEEPFQPVKEATQL [S123T], the “area with substrate ENLYAQS” value was determined as 0.068, the “area with substrate ENLYEQS” value amounted to 0.083, the “area with substrate ENLYGQS” value amounted to 0.0758 and the “area with substrate ENLYHQS” value is 0.0713. Besides, the “area with substrate ENLYIQS” value was 0.142, the “area with substrate ENLYKQS” value came out at 0.0603, the “area with substrate ENLYLQS” value stood at 0.071 and the “area with substrate ENLYMQS” value came out at 0.132. Moreover, the “area with substrate ENLYNQS” value is 0.0681, the “area with substrate ENLYPQS” value was found to be 0.0723, the “area with substrate ENLYQQS” value worked out at 0.0475 and the “area with substrate ENLYRQS” value came to 0.0603. The “area with substrate ENLYSQS” value was 0.0796, the “area with substrate ENLYTQS” value was 0.116, the “area with substrate ENLYVQS” value was 0.137 and the “area with substrate ENLYWQS” value came out at 0.093.

As for MGESLFKGPRDYNPISSSICHLTNESDGHTTSLYGIGFGPFIITNKHLFRRNNGTLVVQSLHGVFKVKDTTTLQQHLVDGRDMIIIRMPKDFPPFPQKLKFREPQREEPICLVTTNFQTKSMSSMVSDTSCTFPSGDGIFWKHWIQTKDGQCGSPLVSTRDGFIVGIHSASNFTNTNNYFTSVPKNFMELLTNQEAQQWVSGWRLNADSVLWGGHKVFMVKPEEPFQPVKEATQL [R109P], the “area with substrate ENLYAQS” value worked out at 0.0854, the “area with substrate ENLYCQS” value is 0.0863, the “area with substrate ENLYDQS” value stood at 0.0618 and the “area with substrate ENLYEQS” value amounted to 0.0684. Besides, the “area with substrate ENLYGQS” value worked out at 0.0626, the “area with substrate ENLYHQS” value was determined as 0.0682, the “area with substrate ENLYIQS” value was 0.132 and the “area with substrate ENLYKQS” value stood at 0.0647. Further, the “area with substrate ENLYLQS” value amounted to 0.0701, the “area with substrate ENLYMQS” value was 0.0755, the “area with substrate ENLYNQS” value turned out to be 0.0657 and the “area with substrate ENLYPQS” value came to 0.0732. In addition, the “area with substrate ENLYQQS” value is 0.0552, the “area with substrate ENLYRQS” value was found to be 0.0579, the “area with substrate ENLYTQS” value amounted to 0.0892 and the “area with substrate ENLYWQS” value is 0.073. The “area with substrate ENLYYQS” value is 0.0667.

As to MGESLFKGPRDYNPISSSICHLTNESDGHTTSLYGIGFGPFIITNKHLFRRNNGTLVVQSLHGVFKVKDTTTLQQHLVDGRDMIIIRMPKDFPPFPQKLKFREPQREERICLVTCNFQTKSMSSMVSDTSCTFPSGDGIFWKHWIQTKDGQCGSPLVSTRDGFIVGIHSASNFTNTNNYFTSVPKNFMELLTNQEAQQWVSGWRLNADSVLWGGHKVFMVKPEEPFQPVKEATQL [T115C], the “area with substrate ENLYAQS” value is 0.0867, the “area with substrate ENLYEQS” value was found to be 0.0629, the “area with substrate ENLYGQS” value was 0.0727 and the “area with substrate ENLYHQS” value is 0.0697. Moreover, the “area with substrate ENLYIQS” value came out at 0.144, the “area with substrate ENLYKQS” value came to 0.0199, the “area with substrate ENLYLQS” value was found to be 0.0883 and the “area with substrate ENLYMQS” value turned out to be 0.124. Also, the “area with substrate ENLYNQS” value amounted to 0.0639, the “area with substrate ENLYPQS” value was 0.103, the “area with substrate ENLYRQS” value was found to be 0.0691 and the “area with substrate ENLYSQS” value turned out to be 0.0849. Further, the “area with substrate ENLYVQS” value was 0.134, the “area with substrate ENLYWQS” value came to 0.0747 and the “area with substrate ENLYYQS” value is 0.0851.
